# From the supplement of paper PMC8728848
# Some of the results follow.
# B1: BDCA-2 (Homo sapiens), Q8WTT0 (protein)
# chain: MVPEEEPQDREKGLWWFQLKVWSMAVVSILLLSVCFTVSSVVPHNFMYSKTVKRLSKLREYQQYHPSLTCVMEGKDIEDWSCCPTPWTSFQSSCYFISTGMQSWTKSQKNCSVMGADLVVINTREEQDFIIQNLKRNSSYFLGLSDPGGRRHWQWVDQTPYNENVTFWHSGEPNNLDERCAIINFRSSEEWGWNDIHCHVPQKSICKMKKIYI
# Columns and labels:
# Assay in all cases: glycan array binding signal (z-score within array); higher = stronger binding
# Conditions in all cases: glycan notation: IUPAC condensed, linker removed
# [1] = molecular target: Gal(b1-4)GlcNAc(b1-3)Gal(b1-4)GlcNAc(b1-2)[Gal(b1-4)GlcNAc(b1-3)Gal(b1-4)GlcNAc(b1-6)]Man(a1-6)[Gal(b1-4)GlcNAc(b1-3)Gal(b1-4)GlcNAc(b1-2)Man(a1-3)]Man(b1-4)GlcNAc(b1-4)[Fuc(a1-6)]GlcNAc
# In short: (§1)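 Glycan array data came from 3228 arrays in the Consortium for Functional Glycomics database, and only arrays with an available protein sequence were kept. Glycan names were put into IUPAC-condensed notation, and columns mapping to the same glycan were averaged. The binding signal is a within-array Z-score, averaged across arrays of one protein sequence run at different concentrations or buffers and across linkers. A negative Z-score can be read as non-binding.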
# [2] = molecular target: Gal(b1-4)GlcNAc(b1-3)Gal(b1-4)GlcNAc(b1-3)Gal(b1-4)GlcNAc
# In short: as §1
# [3] = molecular target: Gal(b1-4)GlcNAc(b1-3)Gal(b1-4)GlcNAc(b1-3)Gal(b1-4)GlcNAc(b1-2)Man(a1-3)[Gal(b1-4)GlcNAc(b1-3)Gal(b1-4)GlcNAc(b1-3)Gal(b1-4)GlcNAc(b1-2)Man(a1-6)]Man(b1-4)GlcNAc(b1-4)GlcNAc
# In short: as §1
# [4] = molecular target: Gal(b1-4)GlcNAc(b1-3)Gal(b1-4)GlcNAc(b1-3)Gal(b1-4)GlcNAc(b1-2)Man(a1-3)[Gal(b1-4)GlcNAc(b1-3)Gal(b1-4)GlcNAc(b1-3)Gal(b1-4)GlcNAc(b1-2)Man(a1-6)]Man(b1-4)GlcNAc(b1-4)[Fuc(a1-6)]GlcNAc
# In short: as §1
# [5] = molecular target: Gal(b1-4)GlcNAc(b1-3)Gal(b1-4)GlcNAc(b1-3)Gal(b1-4)GlcNAc(b1-2)[Gal(b1-4)GlcNAc(b1-3)Gal(b1-4)GlcNAc(b1-3)Gal(b1-4)GlcNAc(b1-6)]Man(a1-6)[Gal(b1-4)GlcNAc(b1-3)Gal(b1-4)GlcNAc(b1-3)Gal(b1-4)GlcNAc(b1-2)Man(a1-3)]Man(b1-4)GlcNAc(b1-4)[Fuc(a1-6)]GlcNAc
# In short: as §1
# [6] = molecular target: Gal(b1-4)GlcNAc(b1-3)Gal(b1-4)GlcNAc(b1-3)Gal(b1-4)GlcNAc(b1-3)Gal(b1-4)GlcNAc(b1-2)Man(a1-3)[Gal(b1-4)GlcNAc(b1-3)Gal(b1-4)GlcNAc(b1-3)Gal(b1-4)GlcNAc(b1-3)Gal(b1-4)GlcNAc(b1-2)Man(a1-6)]Man(b1-4)GlcNAc(b1-4)GlcNAc
# In short: as §1
# [7] = molecular target: Gal(b1-4)GlcNAc(b1-3)Gal(b1-4)GlcNAc(b1-3)Gal(b1-4)GlcNAc(b1-3)Gal(b1-4)GlcNAc(b1-2)Man(a1-3)[Gal(b1-4)GlcNAc(b1-3)Gal(b1-4)GlcNAc(b1-3)Gal(b1-4)GlcNAc(b1-3)Gal(b1-4)GlcNAc(b1-2)Man(a1-6)]Man(b1-4)GlcNAc(b1-4)[Fuc(a1-6)]GlcNAc
# In short: as §1
# [8] = molecular target: Gal(b1-4)GlcNAc(b1-3)Gal(b1-4)GlcNAc(b1-3)Gal(b1-4)GlcNAc(b1-3)Gal(b1-4)GlcNAc(b1-2)[Gal(b1-4)GlcNAc(b1-3)Gal(b1-4)GlcNAc(b1-3)Gal(b1-4)GlcNAc(b1-3)Gal(b1-4)GlcNAc(b1-6)]Man(a1-6)[Gal(b1-4)GlcNAc(b1-3)Gal(b1-4)GlcNAc(b1-3)Gal(b1-4)GlcNAc(b1-3)Gal(b1-4)GlcNAc(b1-2)Man(a1-3)]Man(b1-4)GlcNAc(b1-4)[Fuc(a1-6)]GlcNAc
# In short: as §1
# [9] = molecular target: Gal(b1-4)GlcNAc(b1-3)Gal(b1-4)GlcNAc(b1-3)Gal(b1-4)GlcNAc(b1-3)Gal(b1-4)GlcNAc(b1-3)Gal(b1-4)GlcNAc(b1-2)Man(a1-3)[Gal(b1-4)GlcNAc(b1-3)Gal(b1-4)GlcNAc(b1-3)Gal(b1-4)GlcNAc(b1-3)Gal(b1-4)GlcNAc(b1-3)Gal(b1-4)GlcNAc(b1-2)Man(a1-6)]Man(b1-4)GlcNAc(b1-4)GlcNAc
# In short: as §1
# [10] = molecular target: Gal(b1-4)GlcNAc(b1-3)Gal(b1-4)GlcNAc(b1-3)Gal(b1-4)GlcNAc(b1-3)Gal(b1-4)GlcNAc(b1-3)Gal(b1-4)GlcNAc(b1-2)Man(a1-3)[Gal(b1-4)GlcNAc(b1-3)Gal(b1-4)GlcNAc(b1-3)Gal(b1-4)GlcNAc(b1-3)Gal(b1-4)GlcNAc(b1-3)Gal(b1-4)GlcNAc(b1-2)Man(a1-6)]Man(b1-4)GlcNAc(b1-4)[Fuc(a1-6)]GlcNAc
# In short: as §1
# [11] = molecular target: Gal(b1-4)GlcNAc(b1-3)Gal(b1-4)GlcNAc(b1-3)Gal(b1-4)GlcNAc(b1-3)Gal(b1-4)GlcNAc(b1-3)Gal(b1-4)GlcNAc(b1-2)[Gal(b1-4)GlcNAc(b1-3)Gal(b1-4)GlcNAc(b1-3)Gal(b1-4)GlcNAc(b1-3)Gal(b1-4)GlcNAc(b1-3)Gal(b1-4)GlcNAc(b1-6)]Man(a1-6)[Gal(b1-4)GlcNAc(b1-3)Gal(b1-4)GlcNAc(b1-3)Gal(b1-4)GlcNAc(b1-3)Gal(b1-4)GlcNAc(b1-3)Gal(b1-4)GlcNAc(b1-2)Man(a1-3)]Man(b1-4)GlcNAc(b1-4)[Fuc(a1-6)]GlcNAc
# In short: as §1
# [12] = molecular target: Gal(b1-4)GlcNAc(b1-3)Gal(b1-4)GlcNAc(b1-3)Gal(b1-4)GlcNAc(b1-3)Gal(b1-4)GlcNAc(b1-3)Gal(b1-4)GlcNAc(b1-3)Gal(b1-4)GlcNAc(b1-2)Man(a1-3)[Gal(b1-4)GlcNAc(b1-3)Gal(b1-4)GlcNAc(b1-3)Gal(b1-4)GlcNAc(b1-3)Gal(b1-4)GlcNAc(b1-3)Gal(b1-4)GlcNAc(b1-3)Gal(b1-4)GlcNAc(b1-2)Man(a1-6)]Man(b1-4)GlcNAc(b1-4)GlcNAc
# In short: as §1
# [13] = molecular target: Gal(b1-4)GlcNAc(b1-3)Gal(b1-4)GlcNAc(b1-3)GalNAc
# In short: as §1
# [14] = molecular target: Gal(b1-4)GlcNAc(b1-3)Gal(b1-4)GlcNAc(b1-3)[Gal(b1-4)GlcNAc(b1-3)Gal(b1-4)GlcNAc(b1-6)]GalNAc
# In short: as §1
# [15] = molecular target: Gal(b1-4)GlcNAc(b1-3)Gal(b1-4)GlcNAc(b1-6)[Gal(b1-3)]GalNAc
# In short: as §1
# [16] = molecular target: Gal(b1-4)GlcNAc(b1-3)Gal(b1-4)[Fuc(a1-3)]GlcNAc(b1-3)Gal(b1-4)[Fuc(a1-3)]GlcNAc
# In short: as §1
# [17] = molecular target: Gal(b1-4)GlcNAc(b1-3)GalNAc
# In short: as §1
# [18] = molecular target: Gal(b1-4)GlcNAc(b1-3)[Fuc(a1-3)GlcNAc(b1-6)]Gal(b1-4)Glc
# In short: as §1
# [19] = molecular target: Gal(b1-4)GlcNAc(b1-3)[Gal(b1-4)GlcNAc(b1-6)]Gal(b1-4)GlcNAc
# In short: as §1
# [20] = molecular target: Gal(b1-4)GlcNAc(b1-3)[Gal(b1-4)GlcNAc(b1-6)]GalNAc
# In short: as §1
# [21] = molecular target: Gal(b1-4)GlcNAc(b1-3)[GlcNAc(b1-6)]Gal(b1-4)GlcNAc
# In short: as §1
# [22] = molecular target: Gal(b1-4)GlcNAc(b1-6)Gal(b1-4)GlcNAc
# In short: as §1
# [23] = molecular target: Gal(b1-4)GlcNAc(b1-6)Gal(b1-4)GlcNAc(b1-6)GalNAc
# In short: as §1
binder,measurement,setting,value
B1,glycan array binding signal (z-score),[1],-0.128
same,glycan array binding signal (z-score),[2],-0.237
same,glycan array binding signal (z-score),[3],-0.087
same,glycan array binding signal (z-score),[4],-0.148
same,glycan array binding signal (z-score),[5],-0.147
same,glycan array binding signal (z-score),[6],-0.159
same,glycan array binding signal (z-score),[7],-0.154
same,glycan array binding signal (z-score),[8],-0.14
same,glycan array binding signal (z-score),[9],-0.166
same,glycan array binding signal (z-score),[10],-0.156
same,glycan array binding signal (z-score),[11],-0.155
same,glycan array binding signal (z-score),[12],-0.146
same,glycan array binding signal (z-score),[13],-0.158
same,glycan array binding signal (z-score),[14],-0.139
same,glycan array binding signal (z-score),[15],-0.125
same,glycan array binding signal (z-score),[16],-0.113
same,glycan array binding signal (z-score),[17],-0.16
same,glycan array binding signal (z-score),[18],-0.132
same,glycan array binding signal (z-score),[19],-0.185
same,glycan array binding signal (z-score),[20],-0.249
same,glycan array binding signal (z-score),[21],-0.176
same,glycan array binding signal (z-score),[22],-0.149
same,glycan array binding signal (z-score),[23],-0.323
